For 219 sequences, binding signal results are on record in paper PMC10668032.

The other results are listed elsewhere or left out. At the low end of the ranking the order means little.

In this assay the target is SIX1 homeodomain (reference allele) (UniProt Q15475). The assay is described as follows: universal protein binding microarray. The note with it: Universal all-10-mer PBM (8x60K, AMADID 030236), 300 nM GST-tagged protein, Alexa Fluor 488 anti-GST; buffer, salt, pH and temperature not stated; high values mean tight binding; most listed sequences are background and not binding sites; double strand, one strand shown.
For AAATAGCC, the binding signal is -0.118 E-score.
For AAACACGC the value was -0.142 E-score.
For CAAACCGC the value was -0.228 E-score; for ACACTTCA, -0.128 E-score; for GGACATAC, 0.0292 E-score.
For ACGCGTTA the value was -0.224 E-score.
As for AGCCCCGA, the binding signal was determined as 0.0188 E-score.
The value for AACAACAG was -0.199 E-score; that for CAACAAAC was 0.0227 E-score.
Take AACCTCCG: the binding signal is 0.0149 E-score.
The value for AACTATAT was 0.0676 E-score; that for TCTCCCAA was -0.0329 E-score.
The value for CTCAGTCA was -0.112 E-score.
For CACCGGAG the value was 0.0409 E-score; for CCCTTCAA, -0.107 E-score.
On to CTCTCAAG, for which the binding signal was -0.0422 E-score.
For AAACTCAA the value was -0.186 E-score; for CAGCTAGC, -0.0759 E-score; for CACATACA, 0.0196 E-score.
The value for AGGAGCCT was -0.152 E-score; that for CCCAAACC was 0.0007 E-score; that for ACAAACTC was -0.234 E-score.
The value for ACTGATTA was -0.0201 E-score; that for ATGATGTA was 0.0132 E-score; that for CTACGGCC was -0.0906 E-score.
As for TCTGGGCA, the binding signal was -0.109 E-score.
The value for GTTAAATA was -0.179 E-score.
For the sequence GGGTGTAA, the binding signal is 0.334 E-score.
For ACGCGCTA the value was -0.0409 E-score.
For ACTTGCGC the value was 0.036 E-score; for CGATACCC, 0.492 E-score.
In the case of CGACCCAC, the binding signal was -0.0513 E-score.
For AAGGGGCT the value was 0.0934 E-score; for GTCCTCTA, -0.261 E-score.
For GCAAGGGC the value was -0.273 E-score; for ATGAAATA, -0.15 E-score; for AGGAGTTC, -0.212 E-score.
For CTGCGTGA, the binding signal was -0.0341 E-score.
For ACCGTCCA the value was -0.0239 E-score; for ACGTTGTA, -0.219 E-score; for GACCGGGA, 0.0448 E-score.
For GGTTCTGA the value was -0.144 E-score; for GGTTAATA, 0.169 E-score.
ATACCCGG: the binding signal stood at 0.407 E-score.
The value for AGATGAAC was -0.0911 E-score.
The value for GGATATTA was 0.355 E-score.
For GAAATACA the value was -0.0828 E-score; for AGGCTGCG, -0.161 E-score.
In the case of GAGCGACC, the binding signal was -0.317 E-score.
For AACCTGAG, the binding signal is -0.103 E-score.
The value for CGCGGCGA was 0.0491 E-score; that for GAACAGTC was -0.0176 E-score; that for CTCTAAAG was -0.166 E-score.
The value for ACACTCAC was 0.0868 E-score.
The value for GCGCCACC was -0.242 E-score.
For AAGAGTAG, the binding signal is -0.055 E-score.
For ACTCGCTA the value was 0.05 E-score; for AAGTCGGA, 0.0614 E-score.
The value for ATGCGGGC was 0.0159 E-score; that for GTAATTAC was -0.0546 E-score.
The value for ATCTAGGC was 0.0735 E-score.
Consider GATACCCC, for which the binding signal amounted to 0.496 E-score.
The value for ATTGCAGA was -0.0738 E-score; that for CTCGCGAG was 0.0426 E-score; that for GAATGAGC was -0.0707 E-score.
The value for CTTCATCA was -0.149 E-score; that for GCGTCCGA was -0.0112 E-score; that for AATTGGCA was -0.105 E-score.
For GACGTCCA the value was -0.218 E-score; for GATGATGA, 0.189 E-score.
With TAAATTCA, the binding signal is -0.164 E-score.
For GCGTCTTA, the binding signal was -0.0701 E-score.
For AGCGGCCG the value was -0.272 E-score; for CGATATCA, 0.444 E-score.
The value for AGACGCAA was -0.109 E-score; that for CATGCAAG was 0.0687 E-score; that for CCATCCCG was 0.104 E-score.
As to CATGCATA, the binding signal was determined as 0.018 E-score.
As to GCGCTCTA, the binding signal was -0.248 E-score.
For the sequence GAAAGCAA, the binding signal was -0.0624 E-score.
The value for CTTCTCAA was 0.0658 E-score.
The value for AGGTCGTC was -0.154 E-score.
For AAGTCTGG the value was -0.313 E-score.
Take CCTTTTAA: the binding signal is -0.103 E-score.
The value for CCTGCTGC was -0.232 E-score; that for ATTCAGTG was -0.0117 E-score; that for CGGTCAAG was -0.0835 E-score.
The value for AAGCACAT was -0.101 E-score; that for TGTACTAA was -0.174 E-score.
The value for ATCATAAG was 0.286 E-score; that for CGCTACTC was 0.0352 E-score; that for CCTATCAG was 0.326 E-score.
As for CAGATCCA, the binding signal was determined as 0.329 E-score.
Regarding GAGATGCA, the binding signal was found to be 0.00553 E-score.
For TAGCGCAA the value was -0.000455 E-score; for CGCGAAAC, -0.184 E-score; for CCCCATTC, -0.152 E-score.
For AAACCGGA the value was 0.0389 E-score; for AAATAGAG, -0.17 E-score.
For ATGTCTTG, the binding signal is -0.124 E-score.
Consider ACTGACTC, for which the binding signal is -0.184 E-score.
For ATCCTTCA the value was 0.205 E-score; for GGATAACC, 0.297 E-score.
The value for ACTATCCT was 0.318 E-score.
The value for AATCAGCT was -0.0149 E-score.
As for CCCCGCGG, the binding signal turned out to be 0.0847 E-score.
The value for ACAGTCAT was -0.0242 E-score.
For CTCGTTGC the value was -0.0403 E-score; for AGAAGTGG, -0.0191 E-score; for AAGACAAC, -0.161 E-score.
With CATACGTC, the binding signal is -0.0661 E-score.
For the sequence TAGAGTGA, the binding signal is 0.0353 E-score.
The value for CAGAGTCC was -0.102 E-score; that for ACCGGATA was 0.364 E-score; that for ATCCGGAG was 0.299 E-score.
For ACCTTAGG the value was -0.0982 E-score; for CACGGCCC, -0.159 E-score; for ACGACTGA, -0.136 E-score.
The value for AGCAGGTC was -0.0922 E-score; that for AAGCGCTG was -0.267 E-score.
As to ATTAATAC, the binding signal amounted to 0.352 E-score.
For CTGGATCA the value was 0.326 E-score; for TGGTCCAA, -0.19 E-score; for GTCCTTTA, -0.251 E-score.
As for GTCCGAAA, the binding signal was -0.235 E-score.
The value for GACTCAGC was -0.214 E-score; that for GATCGTGC was 0.276 E-score.
Regarding CAAGACTG, the binding signal was -0.226 E-score.
For GCGCCCCC the value was -0.199 E-score.
For GAGAATAC the value was 0.29 E-score; for ACAGCCGA, -0.0274 E-score.
The value for AGATGATC was 0.38 E-score.
Regarding CCTGCCCA, the binding signal is 0.107 E-score.
As for CTCCGCAA, the binding signal was -0.204 E-score.
For GATGTCCC the value was -0.193 E-score; for AGGAGTAA, -0.0223 E-score.
For TACTGGCA the value was -0.0507 E-score.
The value for TATTACGA was 0.12 E-score.
Regarding ATTCATTC, the binding signal worked out at 0.0773 E-score.
For CGCTTTGA the value was 0.0363 E-score; for AAGGAAAG, -0.0824 E-score; for CACGCCGG, 0.097 E-score.
For ATGATAAC the value was 0.0455 E-score; for GTCTGGTA, 0.151 E-score.
Take AATAAGCA: the binding signal came out at 0.0365 E-score.
For the sequence CATTCACG, the binding signal was -0.174 E-score.
The value for CGCTTGCA was -0.0725 E-score; that for CCCATGGA was 0.0358 E-score; that for GGAGTGTA was 0.00041 E-score.
For GGCGGTAC the value was 0.0303 E-score.
The value for CGACGCCA was -0.206 E-score; that for CATAGCTC was -0.054 E-score; that for AACAGCCT was -0.226 E-score.
For the sequence CTCGGGAA, the binding signal worked out at 0.0596 E-score.
With AGCACCGC, the binding signal turned out to be 0.0565 E-score.
For CACGTAGC the value was -0.237 E-score; for ATTTTTTG, -0.152 E-score; for CGAACGAA, -0.251 E-score.
The value for AGCCAATC was 0.0187 E-score.
With TTATATAA, the binding signal amounted to 0.179 E-score.
The value for GCGACTCA was -0.141 E-score; that for CCACAAGC was -0.138 E-score; that for GACGCGGA was -0.0663 E-score.
The value for GTACCAAA was -0.00468 E-score.
As for CTACCCAC, the binding signal was -0.0272 E-score.
The value for ATGAATAC was 0.284 E-score; that for CCTACCCC was 0.0956 E-score; that for AAGTACCC was -0.00666 E-score.
The value for ATTGCGAC was -0.00247 E-score; that for ATCTCACA was 0.293 E-score; that for ATATACGG was 0.305 E-score.
For AGTTGGTG the value was 0.191 E-score; for AAGCGCGT, -0.216 E-score.
With GATACACA, the binding signal came to 0.354 E-score.
For CTGCGCAG the value was -0.142 E-score; for AGAATATG, 0.114 E-score; for AGTCAGGC, -0.207 E-score.
For CAGACCCA the value was -0.09 E-score; for CTCACGAC, -0.000585 E-score; for CCCCACCG, 0.16 E-score.
For CGACAGGC the value was -0.135 E-score; for CGTTCGCC, -0.0726 E-score.
Turning to ACAGGTTC, the binding signal was -0.127 E-score.
For the sequence AGGTTTGG, the binding signal is -0.1 E-score.
In the case of ATAGATAA, the binding signal came out at 0.094 E-score.
The value for GATCCTAC was 0.32 E-score.
For TGCGTCAA the value was -0.175 E-score; for ATTAAGTG, 0.125 E-score.
Take GACTCCAC: the binding signal is -0.182 E-score.
As to CCCCCATA, the binding signal is 0.0281 E-score.
For ACGCGAGT the value was 0.0259 E-score.
The value for ACCCTAGG was -0.0347 E-score; that for CGCGCGCC was -0.0836 E-score.
AACTGCTT: the binding signal is -0.201 E-score.
The value for CCTTAGAC was -0.123 E-score.
As to CACTGCAA, the binding signal was -0.106 E-score.
The value for CCAAAAAC was 0.0713 E-score; that for TATGTAGA was 0.0544 E-score; that for TAGTAACA was -0.132 E-score.
Regarding AAAAAACG, the binding signal was -0.233 E-score.
On to CAACAACG, for which the binding signal is -0.126 E-score.
For AAGAAGCG the value was -0.326 E-score; for ATCAACAG, 0.209 E-score.
For GCGCGTCA the value was -0.197 E-score; for AGCACACA, -0.263 E-score.
For ACGCTGAA the value was -0.234 E-score.
Turning to CTAGTATC, the binding signal was determined as 0.388 E-score.
The value for ATAGATTA was 0.135 E-score.
The value for CTTCCAAC was -0.153 E-score; that for AACTTGAG was -0.232 E-score.
For AATAGCAA the value was 0.0467 E-score.
Take ACCTGTAC: the binding signal was 0.00589 E-score.
As for GGAGCGAA, the binding signal was -0.292 E-score.
For ACGAAAAA the value was -0.395 E-score; for CAAACAAG, -0.215 E-score; for GCTTCTAC, 0.0506 E-score.
For CCGAGTCC, the binding signal is -0.0881 E-score.
For AACATGCT the value was -0.181 E-score; for GAATGGTC, -0.243 E-score.
